Experimental data reported in PubChem BioAssay (NCI).
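How tested: cells in 96-well plates exposed to compound for 48 hours at five concentrations. GI50 is the concentration that inhibits growth by half. TGI is the concentration that stops growth completely.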

Test system: NCI-H322M lung
Assay: NCI tumour cell line growth inhibition, 48 h

| Structure (SMILES) | GI50 [µM] | TGI [µM] |
| --- | --- | --- |
| C=CC[Se]C(=O)c1cncc(C(=O)[Se]CC=C)c1 | 0.298 | 1.17 |
| N#CC1=C(c2cccs2)Nc2c(c(-c3ccccc3)nn2-c2ccccc2)C12C(=O)Nc1ccccc12 (stereo not given) | 38.7 | > 100 |
| CC12CCC3(CCC(=O)NCCCNc4ccnc5cc(Cl)ccc45)[C@@](C)(OO[C@]3(C)O1)O2 | 6.52 | > 25.5 |
| CN(C)CCOc1ccc(C(=O)C2[C@H](c3ccc(Cl)cc3)[C@@H](c3ccccc3)NC23C(=O)Nc2ccc(Cl)cc23)cc1 (stereo not given in full) | 13.2 | 26 |
| Cc1ccc(Nc2nnc(-c3c[nH]c4ccccc34)o2)c(C)c1 | 1.62 | > 100 |
